The text below walks through data of ChEMBL document CHEMBL4888484, “Replenishing the malaria drug discovery pipeline: Screening and hit evaluation of the MMV Hit Generation Library 1 (HGL1) against asexual blood stage Plasmodium falciparum ,using a nano luciferase reporter read-out” (2022).

Where “and” joins values, the source holds several entries; their conditions need not be identical. Equal values may be shown once. Among all 150,000 compounds or so, about 540 (0.36%) showed an effect of 50% or more. This is one part of the list.

The test system of this assay is Plasmodium falciparum. Nature of the assay: Primary screen in NF54 nanoGlo assay, in single point, at 2uM, 72h; a lower Z score goes with more inhibition. It is filed as functional, Erythrocyte. The following applies: timepoint 72 hour.

With `CN(CCC(=O)O)c1ccnc(C2CC2)n1`, the “% Inhibition” value is -50% and the Z score is on record as 5.86. On the same counts, the results for `CC1(C2CCN(C(=O)c3cn(Cc4ccccc4)nc3-c3ccccc3)CC2)OCCO1` are -12% and 1.61. The matching figures for `CCC(=O)N1CCN([C@H]2CCN(Cc3ccccc3)C2)CC1`: 2% and -0.31. On the same counts, the results for `Cc1cc(C)c(CNC(=O)[C@H]2CC(=O)N(c3ccc(C)c(F)c3)C2)c(=O)[nH]1` are -12% and 1.78. As to `COCCO[C@H]1CCN(c2nnc(-c3ccc(C)o3)n2Cc2ccccc2)C1`, the “% Inhibition” value is -12% and the Z score was determined as 1.54. The matching figures for `COc1cccc(CN2CCC(C)(C)S(=O)(=O)CC2)c1F`: -10% and 1.54. Regarding `COC1(C)CC(NC(C(N)=O)c2ccccc2)C1(C)C` (centres undefined), the “% Inhibition” value is 8% and the Z score was -0.85. On the same counts, the results for `NCCCc1ccc(Cl)c(Cl)c1` are -3% and 0.38.

As for `CN(Cc1csnn1)[C@@H](C(N)=O)c1cccc(Br)c1`, the “% Inhibition” value is on record as -10% and the Z score is recorded as 1.87. The matching figures for `CCN(CCN1CCCC1)C(=O)c1c(C)n[nH]c1C1CC1`: 1% and -0.07. On the same counts, the results for `CN(CCCC(=O)NC[C@H]1c2ccccc2C(=O)N1C)C(=O)c1ccncc1` are -14% and 1.53.

As to `COc1nc2c(c(C)nn2-c2cccc(F)c2)c(C)c1CCC(=O)N1CCCC1`, the “% Inhibition” value was -11% and the Z score was determined as 1.56. The matching figures for `Cc1nc(N[C@@H](C)Cn2cccn2)cc(C(C)C)n1`: 7% and -1.31. For `Cn1cc(-c2noc(/C=C/c3cccc(Cl)c3)n2)ccc1=O`, the “% Inhibition” value was -1% and the Z score is recorded as 0.14. As to `CN(C)c1ncncc1NC(=O)c1ccc(F)c(F)c1`, the “% Inhibition” value is -8% and the Z score is 0.82. For `Cc1c[nH]c(-c2c(-c3ccccc3)ncn2[C@H](CO)c2ccccc2)n1`, the “% Inhibition” value is recorded as -9% and the Z score amounted to 1.21. The matching figures for `O=C(c1ccc(F)cc1Cl)N1CC[C@H](c2cccs2)C1`: 2% and -0.47.

As for `Cc1nn(C)c2nc(-c3cccs3)cc(C(=O)N3CCCC[C@@H]3C)c12`, the “% Inhibition” value came out at 1% and the Z score is on record as -0.19. Take `CCCCC1CCCC1NC(=O)CCc1c(C)noc1C` (centres undefined): the “% Inhibition” value was 5% and the Z score is recorded as -0.59.

Consider `CCCn1nnnc1CN(C)S(=O)(=O)CCC`, for which the “% Inhibition” value is recorded as -11% and the Z score is recorded as 1.72. The matching figures for `Cc1ccc2c(c1)CCCN2C(=O)c1ccoc1`: 4% and -0.72. As for `Cc1csc(CN(C)c2ncccc2C(=O)N2CCCCC2)n1`, the “% Inhibition” value is -9% and the Z score stood at 0.73. On the same counts, the results for `Cc1ccccc1NC(=O)Cn1ccnc1-c1cccc(Cl)c1` are -10% and 1.31. On the same counts, the results for `Cc1c(N)ncn(Cc2ccc(Cl)cc2)c1=O` are 5% and -0.58. The matching figures for `Cc1[nH]c(=O)c(C(=O)N(Cc2cnn(C)c2)C(C)C)c(C)c1Cl`: -5% and 0.52.

For `CCn1nc(Cn2cncn2)nc1CN1CCOC1=O`, the “% Inhibition” value was -7% and the Z score came out at 1.42. On the same counts, the results for `CC1(C)Cc2cccc(NC(=O)N3CCC(O)(C4CCC4)CC3)c2O1` are -4% and 0.53.

As to `O=C(Cn1ccc2ccccc21)N1CCN(c2cnsn2)CC1`, the “% Inhibition” value is recorded as -11% and the Z score came to 1.41. For the compound `CCc1nc(C)c(C(=O)NC(C)(C)C(=O)OC)s1`, the “% Inhibition” value was 1% and the Z score is on record as -0.15. `CC1CCC(C)(NC(=O)c2cc(S(N)(=O)=O)cn2C)CC1` (centres undefined): the “% Inhibition” value was -15% and the Z score is on record as 2.43. Consider `C[C@@H](C(=O)NC1(C#N)CCCCC1)N1CCN(c2nccs2)CC1`, for which the “% Inhibition” value is -9% and the Z score worked out at 1.54. The matching figures for `CC[C@@]1(C(=O)Nc2cccc(COC(C)C)c2)CCCN1`: -10% and 1.09. The matching figures for `COc1cccc(CN2C[C@]34C=C[C@H](O3)C(C(=O)N3CCC(F)CC3)C4C2=O)c1` (some centres undefined): -6% and 1.19. Regarding `CO[C@@H](CN(C)Cc1cn2c(n1)CCCC2)c1ccccc1`, the “% Inhibition” value is recorded as -12% and the Z score was 2.1. The matching figures for `Cn1cc([C@@H](OC(=O)c2scnc2C2CC2)C(F)(F)F)cn1`: -3% and 0.58. On the same counts, the results for `Brc1ccc(CN[C@H](c2nccs2)C2CC2)o1` are 7% and -0.65. On the same counts, the results for `Cc1cccc2ncnc(N3CCC([C@@H]4CCCN4)CC3)c12` are 5% and -0.9. With `CN(C)c1ccc(CN[C@H]2C[C@H]3C(=O)NC[C@@H](CCC(=O)Nc4ccccc4)N3C2)cc1`, the “% Inhibition” value is -10% and the Z score came out at 1.33. The matching figures for `Cc1[nH]c2ccc(NC(=O)c3ccccc3F)cc2c1[C@@H](c1ccccn1)N1CCCCC1`: 3% and -0.5. On the same counts, the results for `Cc1ncn(CCNC(=O)[C@]2(c3ccccc3F)CC2(C)C)c1C` are -11% and 1.79. Regarding `CC(C)(C)c1ccc(OC[C@H]2CCCN2)nn1`, the “% Inhibition” value was -3% and the Z score came to 0.35. On the same counts, the results for `COc1ccc(CCNC(=O)c2cc3n(n2)[C@H](C(F)(F)F)C[C@H](c2ccco2)N3)cc1` are -12% and 1.6. The matching figures for `Cc1cc(C)cc(-n2nc(C)cc2NC(=O)C(=O)Nc2ccccc2)c1`: 0% and 0.04. Take `COc1ccc(NC(=O)c2cc(C#N)c3ccccn23)cc1`: the “% Inhibition” value came to 3% and the Z score is given as -0.3. On the same counts, the results for `COc1ccc(CN2Cc3cc(NC(=O)CC(C)(C)C)ccc3O[C@@H](C)C2=O)cc1` are -2% and 0.2. On the same counts, the results for `Cc1cc(CN=C(N)Nc2ccc3c(c2)CCC3)no1` are -4% and 0.56. The matching figures for `O=C1N[C@@](Cc2ccc(F)cc2)(C2CCN(Cc3c[nH]c4ccccc34)CC2)C(=O)N1C1CCCC1`: 7% and -1.39.

Turning to `CC(=O)c1ccc(C(=O)N2CCC[C@@H]2CCC2CCCCC2)[nH]1`, the “% Inhibition” value is -7% and the Z score is given as 0.74. Turning to `CCS(=O)(=O)N1CCN(C2CCCC2)CC1`, the “% Inhibition” value (2 µM) was 0% and 2%. As for `CCN(CC)CCC[C@H](C)NC(=O)CCN(CCOC)C(=O)c1cnc(C)cn1`, the “% Inhibition” value was found to be 1% and the Z score is on record as -0.11. The matching figures for `O=C(c1cc(Br)cn2ncnc12)N1CC(n2ccnn2)C1`: -10% and 1.31. On the same counts, the results for `CCC(C(=O)N1CC2C3CCC(O3)C2C1)c1ccccc1` (centres undefined) are -3% and 0.46. The matching figures for `FC(F)Cn1cc(CN2CCOCc3ccccc32)cn1`: -5% and 0.66.

As for `O=C(CN1CCN(S(=O)(=O)c2cccc(Br)c2)CC1)NC1CCCCCC1`, the “% Inhibition” value is reported as -6% and the Z score worked out at 0.72. The matching figures for `O=C1N[C@]2(CCc3ccccc3C2)C(=O)N1CN1CCN(c2ccccc2F)CC1`: -4% and 0.49.
